Laboratory results taken from PubChem BioAssay AID686978 (National Center for Advancing Translational Sciences (NCATS), 2013).
Screen size: about 420,000 compounds; about 64,000 (15%) were called active. Inconclusive means that the source gave no clear call. Such entries were picked first, then a sample of the others. The call rests on the fitted dose curve; in most records, active means well fitted inhibition curve with a large enough effect; inconclusive means small, poorly fitted or top-dose-only effect; inactive means flat fitted curve, though single readings scatter. Potencies of inconclusive entries are left out as doubtful fits.

experiment: qHTS for Inhibitors of human tyrosyl-DNA phosphodiesterase 1 (TDP1): qHTS in cells in absence of CPT; conditions: DT40 Tdp1-/- hTDP1 cells, no CPT, ATP luminescence, 48 h; activity change, negative = growth inhibition: at 46.2 µM (top of the series) unless noted; further: nearly all actives have a fitted effect of over 55% in size
Outline: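 Cells were dispensed at 400 per well, compounds added by pin tool, plates incubated ≥48 hr at 37 °C, then CellTiter-Glo added for 30 min at room temperature before luminescence reading. Line: DT40 Tdp1-/- complemented with hTDP1; camptothecin omitted.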
On the % scale 0 is the no-effect control and ±100 the full control effect; potency means the concentration at half of the fitted maximal effect; tags describe the fitted curve by direction and shape.

Row | SMILES | Potency | activity change, negative = growth inhibition
1 | CN1CCN(C(=O)c2ccc(S(=O)(=O)c3ccc(Br)cc3)cc2)CC1 | active: 18.4 µM | 
2 | O=C(NN=Cc1ccc(Cl)cc1Cl)c1ccccc1 | inconclusive [inhibitor, single point] | 
3 | Cc1cccc(NCCC(=O)c2ccc([N+](=O)[O-])cc2)c1C | inconclusive [inhibitor, full curve] | 
4 | Cc1ccc(Sc2cc(NCCCO)c([N+](=O)[O-])c3nonc23)cc1 | active: 2.91 µM | 
5 | Cc1ccc(C(=O)c2cn(Cc3ccccc3)c3c(F)cc(F)cc3c2=O)cc1 | inconclusive [inhibitor, single point] | 
6 | NC(=O)CC(NC(=O)Cc1cccc2ccccc12)c1ccc(NCCc2ccccc2F)c([N+](=O)[O-])c1 (stereo not given) | inconclusive [inhibitor, single point] | 
7 | COc1ccc(CCC(=O)N/N=C\c2cccs2)cc1 |  | inactive: 4.74%
8 | N/C(=N\OC(=O)CC1CCCCC1)c1ccc(Cl)cc1 |  | inactive: 8.94%
9 | Cc1cccc(NS(=O)(=O)c2ccc(C)c(C(=O)OCC(=O)Nc3cc(C)on3)c2)c1 | inconclusive [inhibitor, partial curve] | 
10 | Cc1cc(Nc2cccc(Cl)c2)nc2ccc(NC(=O)Cc3c(F)cccc3Cl)cc12 | active: 7.31 µM | 
11 | CC(=O)Nc1ccc2c(c1)c1ccccc1n2C(C)=O | inconclusive [inhibitor, single point] | 
12 | Cc1ccc(S(=O)(=O)N(C)CCCC(=O)N2CCCCC2)cc1 |  | inactive: -23%
13 | CCCCN(CC)CCCNC(=O)c1ccc2c(c1)N(CC)C(=O)c1ccccc1S2(=O)=O |  | inactive: 0.703%
14 | CCCc1cc(=O)[nH]c(SCC(=O)Nc2cc(S(=O)(=O)N(CC)c3ccccc3)ccc2Cl)n1 | inconclusive [inhibitor, single point] | 
15 | CCOc1ccc(/C=C2\SC(=S)N(CCCC(=O)NCCCN3CCOCC3)C2=O)cc1 | inconclusive [inhibitor, single point] | 
16 | Cc1cccc(-n2ncc3c2CCCC3NC(=O)CC(F)(F)F)c1C (stereo not given) | inconclusive [inhibitor, single point] | 
17 | COCCn1c(=NC(=O)CSCC(=O)N2CCOCC2)sc2cc(C)ccc21 | inconclusive [inhibitor, single point] | 
18 | COc1ccc(-c2nn(C)c(=O)c3ccccc23)cc1CNC(=O)C1CCCCC1 | inconclusive [inhibitor, single point] | 
19 | Cc1ccc(C2=NCCn3nc4cc([N+](=O)[O-])ccc4c32)cc1 | inconclusive [inhibitor, single point] | 
20 | Cc1ccc(S(=O)(=O)N2[C@H](CC(=O)OCc3ccccc3)OC[C@@H]2C)cc1 | inconclusive [inhibitor, single point] | 
21 | O=C(CC1C[C@H](C(=O)N2CCOCC2)[C@@]2(CCC3CCCC3)c3[nH]c4ccccc4c3CCN2C1=O)NCc1ccco1 (stereo not given in full) | inconclusive [inhibitor, single point] | 
22 | Nc1cc2c(cc1N)-c1ccccc1C2 | active: 16.4 µM | 
23 | COc1ccc2[nH]cc(CCNc3nc(-c4ccccc4OC)nc4ccccc34)c2c1 | inconclusive [inhibitor, single point] | 

Row | SMILES | Potency | activity change, negative = growth inhibition
24 | COc1ccc(S(=O)(=O)N2CCN(S(=O)(=O)c3ccc4c(c3)OCCO4)CC2)cc1C | inactive | 
25 | Cn1c(=O)c(=O)n(C)c2cc(N3CCCC3)c(NC(=O)c3ccccc3Cl)cc21 | inconclusive [inhibitor, single point] | 
26 | Cc1ccc(C(=O)NCC(=O)OCc2nnc(-c3ccc([N+](=O)[O-])cc3)o2)s1 |  | inactive: -29.3%
27 | CCOc1ccc2nc(SCC(=O)NCc3ccccc3OC)[nH]c2c1 | inconclusive [inhibitor, partial curve, poor fit] | 
28 | CC(=O)N1CCCC(c2cc(C(=O)Nc3ccccc3)no2)C1 (stereo not given) | inconclusive [inhibitor, single point] | 
29 | Cc1cc(NC(=O)C(C)Oc2ccc(C(C)(C)C)cc2)no1 (stereo not given) |  | inactive: -6.71%
30 | Cc1ccc(C(=O)N/C(=C\C=C\c2ccccc2)C(=O)NCc2ccco2)cc1 |  | inactive: -13.9%
31 | CSc1nc(N)c2ncn([C@H]3O[C@H](COP(=O)(O)OP(=O)(O)OP(=O)(O)O)[C@@H](O)[C@@H]3O)c2n1 |  | inconclusive: -31.9% [inhibitor]
32 | Cc1cnc(C=NNC(N)=S)c2cccc(N)c12 | active: 3.66 µM | 
33 | COc1ccc(-n2c3c(cc(C(=O)NCC(=O)c4ccccc4)c2=O)C(=O)CC(C)(C)C3)cc1 |  | inactive: -19.8%
34 | CCC(=O)N1CCCC(C(=O)Nc2nc3ccccc3[nH]2)CC1 (stereo not given) |  | inactive: -4.05%
35 | NCC(=O)CCC(=O)O | inactive | 
36 | COc1ccc(-c2nc(-c3ccccc3)no2)c(OC)c1 | inconclusive [inhibitor, single point] | 
37 | Cc1cccc(NC(=O)Nc2nnc([C@@H]3C[C@H](O)[C@@H](CO)O3)s2)c1 |  | inactive: -9.96%
38 | COc1ccccc1C(=O)N1CCC(N2CCN(c3ccccc3OC)CC2)CC1 | inconclusive [inhibitor, single point] | 
39 | CCOC(=O)c1cccc(NS(=O)(=O)c2c(C)[nH]c(C)c2C(=O)N2CCCC2)c1 |  | inactive: -16.5%
40 | COc1ccc(Cn2cccc(NC(=O)Nc3cccc(C#N)c3)c2=O)cc1 | inconclusive [inhibitor, single point] | 
41 | Cc1ccc(Sc2ccc(C(=O)NC(C)C)cc2[N+](=O)[O-])cc1 | inconclusive [inhibitor, partial curve, poor fit] | 
42 | CCc1nc(SCC(=O)NC2CC2)c2c(C)c(C)sc2n1 | inconclusive [inhibitor, partial curve] | 
43 | CCOc1ccccc1CNC(=O)CN1C(=O)c2cccnc2Oc2ccc(C)cc21 | inconclusive [inhibitor, single point] | 
44 | CCn1c(=O)c2sccc2n2c(CCCC(=O)Nc3ccc(Oc4ccccc4)cc3)nnc12 | active: 14.6 µM | 
45 | C#CCOCCOCCOCCNc1nc(N2CCOCC2)nc(N2CCN(C(=O)[C@H](CCCCN)n3cc(CN)nn3)CC2)n1 |  | inactive: 10.8%
